The campaign covered roughly 48,000 compounds. About 450 (0.94%) were called active. About 19% were inconclusive and are not listed. Calls follow the shape of the dose curve; as a rule, active = well fitted inhibition curve with a large enough effect; inconclusive = small, poorly fitted or top-dose-only effect; inactive = no such curve, though single readings can be large or run the other way. The list shows a part of the results.
test: Primary qHTS for Identification of Small Molecule Inhibitors of Huntingtin Promoter Activity; settings: HEK293 HTT promoter firefly luciferase reporter (activity 0% = vehicle and -100% = no light), 24 h; series mostly up to 57.5 µM; activity change, negative = inhibition: at the top concentration; also: nearly all actives have a fitted effect of over 50% in size
Summary of the method: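 HEK293 luciferase promoter-reporter cells (2,500/well) plated 24 h, then compounds added at up to 57.5 uM final for 24 h at 37 °C. Firefly luminescence by Dual-Glo, normalized to vehicle (0%) and zero RLU (-100%).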

Activity change, negative = inhibition, inactive:
COc1ccc(CNCc2ccc(C(=O)O)s2)cc1 -17.6%
O=C(NCCc1ccc(Cl)cc1)c1ccc(Nc2nc3ccccc3n3nnnc23)cc1 6.42%
Cc1cccc(NC(=O)C(=O)NCCCN2CCOCC2)c1 13.9%
COc1ccc(NC(=O)c2nc(SCc3ccc(F)cc3)ncc2Cl)cc1 -10.7%
CCOc1ccc(NC(=O)c2sc(-n3nc(C)c(CCC(C)C)c3C)nc2C)cc1 -17.7%
CCC(C)Nc1nc2c(c(=O)[nH]c(=O)n2C)n1Cc1ccc(F)cc1 (stereo not drawn) -13.8%
Cc1ccc(-n2ncc3c(NCCc4ccc(S(N)(=O)=O)cc4)ncnc32)cc1 -34.1%
CCCCOC(=O)CSc1ncnc2sc3c(c12)CCC(C)C3 (stereo not drawn) 1.79%
C=Cc1ccc(Cn2c(C(=O)O)c(CNCCc3ccco3)c3ccc(C)cc32)cc1 -24.9%
COC(=O)c1cc2sccc2n1Cc1nc(-c2cccc(Cl)c2)oc1C -6.17%
OCC(O)CN1CCN(c2ccccc2)CC1 (stereo not drawn) 3.95%
CC1=C(c2ccc(C)cc2)S(=O)(=O)NC1=NCc1ccccc1Cl -5.52%
Cc1ccc2oc(-c3cccc(NC(=O)c4cccc5c(Cl)cccc45)c3)nc2c1 -0.726%
COCCNC(=O)Cn1nc(-c2ccc(C)cc2)c2ccccc2c1=O -16.6% [at 11.5 µM]
COc1cccc(Cn2nnc3c(=O)[nH]c(C4CCCN(C(=O)c5ccccc5Cl)C4)nc32)c1 (stereo not drawn) -21.2%
CCc1ccccc1NC(=O)COCc1cc(-c2ccco2)on1 11%
O=C(NCCc1ccccc1)c1ccc2nc(CCc3ccccc3)oc2c1 22.7%
CCOc1ccc2c(c1)c(=O)c(C(=O)c1ccc(CC)cc1)cn2CC(=O)Nc1cccc(Cl)c1 -16%
Cc1cc(C)c(Cn2c(=O)n(CCC(=O)NCc3ccc4c(c3)OCO4)c(=O)c3ccccc32)c(C)c1 -2.53%
CCOc1ccc(OCC)c(NC(=O)C2CCN(S(=O)(=O)c3ccc4c(c3)CC(C)N4C(C)=O)CC2)c1 (stereo not drawn) -21.9%
Cc1ccc2occ(CC(=O)N(Cc3ccc(Cl)cc3)Cc3ccco3)c2c1 -5.44%
Cc1ccc(N2C(=O)[C@@H]3CSC(c4ccc(Cl)cc4)N3C2=O)cc1 (stereo partly drawn) -17%
O=C(c1ccco1)N(Cc1cccs1)c1ccc(F)cc1 -17.8%
Cc1cc(O)c(C(c2ccccc2)N2CCN(c3ccc(F)cc3)CC2)c(=O)n1Cc1ccco1 (stereo not drawn) -1.62%
Cc1ccc(-n2c(CCC(=O)O)ccc2-c2cccs2)cc1Cl -1.85%
Cc1cccc(OCc2cc(=O)n3c4c(sc3n2)CCCC4)c1C -6.68%
CCc1ccc(C(=O)CC2(O)C(=O)N(Cc3ccc(C)cc3)c3ccccc32)cc1 (stereo not drawn) -24.8%
CCc1ccccc1NC(=O)c1cc2nc(-c3ccc(Br)cc3)cc(C(F)(F)F)n2n1 -13.7%
CC(C)c1nc2ccc(C(=O)NCc3ccccc3Br)cc2o1 -8.02%
COc1cccc(CNC(=O)c2ccc(-n3c(C)cc4c3CCCC4)cc2)c1 -2.25%
Cc1noc(-c2ccccc2OCC(=O)Nc2ccccc2[N+](=O)[O-])n1 -5.01%
COc1ccc(CNC(=O)c2sc3nc[nH]c(=O)c3c2C)cc1 1.81%
COc1ccc2cc(CNc3ccc(C)cc3)c(=O)n(CC(=O)Nc3ccc(C)cc3Cl)c2c1 -25.9%
CCN1CCSc2ccc(C(=O)NCc3cccc(Br)c3)cc21 -26.2%
CCOc1ccc(NC(=O)CSc2c3c(nc4ccccc24)CCCC3)cc1 -7.81%
CCCCOc1ccccc1C(=O)N(Cc1sccc1C)C1CCS(=O)(=O)C1 (stereo not drawn) -17.9%
CN(C)CCCn1c(-c2ccc(Cl)cc2)csc1=Nc1ccccc1 -27.7%
Cc1ccc2nc(CN3CCN(S(=O)(=O)c4ccc(C(C)C)cc4)CC3)oc2c1 -14.5%
COC(=O)c1ccc(NC(=O)CCn2cnnn2)c(C)c1 -1.68%
COc1ccc(OC)c(NC(=O)c2cc3cccc(OC)c3oc2=O)c1 -1.15%
CCCNC(=O)c1ccc(Cn2c(SCC(N)=O)nc3ccccc3c2=O)cc1 -7.8%
Cc1ccc(-c2nc3cccc(C)n3c2Nc2ccc3c(c2)OCO3)o1 14.2%
COc1cccc(CNC(=O)Cn2ncn3c(cc4ccccc43)c2=O)c1 6.74%
Cc1nn(-c2ccccc2)c(OC(=O)c2ccc(Cl)cc2)c1S(=O)(=O)c1ccccc1 -10.7%
COc1ccc(CNS(=O)(=O)c2cc3c(cc2Cl)NC(=O)CO3)cc1 -20.5%
CCC(=O)Oc1c(Sc2ccc(C)cc2)c(C)nn1-c1ccccc1 -12.7%
O=C(c1cc(-c2ccc(Br)cc2)n[nH]1)N1CCN(S(=O)(=O)c2ccc(Cl)s2)CC1 5.74%
O=C(CSc1nc(=O)n(CCN2CCOCC2)c2c1CCC2)Nc1ccc(F)cc1F -12.3%
COCCCn1c(SCC(=O)Nc2ccc(OC)cc2)nc2c(sc3ccccc32)c1=O -16.7%
Cn1c(=O)c2c(nc(N3CCOCC3)n2Cc2ccccc2F)n(C)c1=O -5.58%
O=C(Nc1ccccc1C(F)(F)F)C1CCN(S(=O)(=O)c2ccccc2)CC1 -21.8%
O=C(CSc1nc2ncccc2o1)Nc1ccc(Cl)cc1F 38.5%
COc1cc(C2c3c(-c4cc(C)ccc4O)n[nH]c3C(=O)N2Cc2ccco2)cc(OC)c1OC (stereo not drawn) -6.71%
COC(=O)CSc1nc2sc3c(c2c(=O)n1-c1ccccc1)C(C)CCC3 (stereo not drawn) -14.5%
CC(C)Oc1ccc(C(=O)Nc2nnc3n2CCS3)cc1 72.7%
O=C(Cn1cc(SCc2ccc(Cl)cc2)c2ccccc21)N1CCOCC1 2.9%
CCCc1nn2c(=O)cc(COC(=O)c3cccc(NC(=O)c4ccc(OCC)cc4)c3)nc2s1 -27.8%
COc1ccc(NC(=O)c2cc(S(=O)(=O)N3CCCC(C)C3)cn2C)c(OC)c1 (stereo not drawn) -10.4%
COc1ccc(NC(=O)CSc2nc3ccccc3n2CC(=O)N(C)C2CCCCC2)cc1 -13.9%
Cc1cc(Cl)ccc1NS(=O)(=O)c1c(C(=O)N2CCCCCC2)c(C)n(C)c1C -10.4%
COC(=O)c1ccccc1NC(=O)c1ccc2c(c1)CCN2S(=O)(=O)c1ccc(Cl)cc1 -2.17%
Cc1ccc(C)c(Cn2c3ccccc3c3cnn(CC(=O)NC4CCCCCC4)c(=O)c32)c1 21.7%
Cc1c(Cl)cccc1NC(=O)CSc1nc(=O)[nH]c2c1CCC2 -26.1%
O=S(=O)(c1cccc(Cl)c1)n1c(/C=C/c2ccccc2Cl)nc2ccccc21 -45.7%
O=c1n(Cc2ccccc2)nc2n1-c1cc(Cl)ccc1OC2 -1.92%
Cc1c2cnn(-c3ccccc3)c(=O)c2c(C)n1CCCC(=O)Nc1cccc(F)c1 -2.05%
COc1ccc(-c2cc(OC(=O)c3cccc(Cl)c3)c3c(C)oc(C)c3c(=O)c2)cc1OC -29.9%
COC1=CC(=O)C[C@@H](C)[C@]12Oc1c(Cl)c(OC)cc(OC)c1C2=O -18.8%
CC(NS(=O)(=O)c1ccc2c(c1)CCN2C(=O)CCCC(=O)O)c1ccccc1 (stereo not drawn) 4.61%
N#Cc1nc(/C=C/c2ccc(F)cc2)oc1N1CCCCCC1 -10.2%
COc1cc(OC)cc(C(=O)N2CCN(C(=O)COc3ccc(C)cc3)CC2)c1 5.51%
COc1cccc(-n2c(SCC(=O)Nc3ccc4c(c3)OCO4)nc3c([nH]c4ccccc43)c2=O)c1 -9.16%
CCc1c(C)sc(NC(=O)c2cc3nc(-c4ccc(OC)cc4)cc(C(F)(F)F)n3n2)c1C(=O)OC -0.395%
CCN(CC)c1ccc(NC(=O)Cn2nc3c(cc2=O)CCCC3)c(C)c1 0.0719%
CCC(=O)NCC[C@@H]1CCc2ccc3c(c21)CCO3 -5.08%
Cc1ccccc1NC(=O)CSc1nc(-c2cccs2)nc2cc(=O)[nH]n12 -1.73%
COc1ccc(-n2nc(C(=O)Nc3cc(C)c(Cl)cc3OC)c3c4ccccc4n(C)c3c2=O)cc1 -16.9%
CCCCN(CCCC)CCCNC(=O)c1cc(-c2ccc(Cl)s2)nc2ccccc12 -18.2%
CC(C)c1ccc(C2CC(=O)N3CN(C4CCCCC4)CSC3=C2C#N)cc1 (stereo not drawn) -25.6%
Cn1ccc2cc(S(=O)(=O)N3CCCC(C(=O)NCc4ccccc4F)C3)ccc21 (stereo not drawn) -23.8%
Cc1ccccc1-c1nc(CNC(=O)NC2CCCCC2)c(C)o1 0%
CC1=C(C(=O)Nc2ccccc2)C(c2ccc(Br)cc2)n2nc(CCCO)nc2N1 (stereo not drawn) -12.5%
COc1ccc(-n2ncc3c2ncn2nc(-c4ccc(OC)c(OC)c4)nc32)cc1 -19%
COc1ccccc1N1CCN(C(=O)c2nn(C)c3c2CS(=O)(=O)c2ccccc2-3)CC1 -7.07%
COc1cccc(CNC(=O)CN2C(=O)COc3ccc(S(=O)(=O)N4CCCCC4)cc32)c1 -20.6%
CCn1cc2nc(SCc3cc(C)ccc3C)n(Cc3ccc(Cl)cc3)c(=O)c2n1 2.28%
CCN(CC)c1ccc(CN(C(=O)c2cc(=O)c3ccccc3o2)C2CCS(=O)(=O)C2)cc1 (stereo not drawn) -25%
Cn1cc(S(=O)(=O)N2CCCC2)cc1C(=O)Nc1ccc(F)cc1F -9.71%
CCOC(=O)c1ccc(NC(=O)Cc2noc3ccc(C)cc23)cc1 -1.02%
CC1=C(C(=O)Nc2ccccc2Br)C2(CCC(C)CC2)OC1=O (stereo not drawn) -18%
CCCCC12CN3CC(C)(CN(C1)C3c1ccc(OCc3ccccc3)cc1)C2=O (stereo not drawn) -16.8%
Cc1ccc(-c2nc3sc(CCNC(=O)c4ccc(F)c(F)c4)c(C)n3n2)cc1 -22.4%
O=C(C1CCN(S(=O)(=O)c2cccs2)CC1)N1CCN(c2ccccc2F)CC1 -11.5%
Cc1ccc(CNC(=O)CCCCCn2c(=O)c3sccc3n(CC(=O)N3CCCCC3C)c2=O)cc1 (stereo not drawn) -5.29%
O=C(CCCCCn1c(=O)[nH]c2ccccc2c1=O)N1CCN(c2cccc(C(F)(F)F)c2)CC1 -7.38%
COc1ccc(C)cc1NC(=O)CN(C)S(=O)(=O)c1ccc2c(c1)c(=O)n(C)c(=O)n2C -3.57%
Cc1ccccc1NC(=O)c1c(C)oc2ccc(O)c(CN3CCCCCC3)c12 -28.4%
CCC(CC)C(=O)Nc1ccc(S(=O)(=O)N2CCC(c3nc4ccccc4s3)CC2)cc1 -13.8%
